Source: publication PMC7819943, “Rice protein-binding microarrays: a tool to detect cis-acting elements near promoter regions in rice”
Some of the results follow.

Target: T1, OsWOX13 (Oryza sativa, UniProt Q5QMM3 1-267)
T1 sequence: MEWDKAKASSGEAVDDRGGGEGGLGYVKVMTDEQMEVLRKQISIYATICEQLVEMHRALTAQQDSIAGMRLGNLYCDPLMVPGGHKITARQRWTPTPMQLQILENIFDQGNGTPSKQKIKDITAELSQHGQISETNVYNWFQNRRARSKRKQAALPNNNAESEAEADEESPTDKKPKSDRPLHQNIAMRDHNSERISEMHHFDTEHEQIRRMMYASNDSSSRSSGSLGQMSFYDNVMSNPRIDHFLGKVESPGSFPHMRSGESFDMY
Assay: protein-binding microarray (RPBM); PBS, 2% BSA, 51.3 ng/ul salmon testes DNA, 50 uM zinc acetate, 200 nM TF, 25 C, 1 h; high values mean tight binding
Conditions: protein: recombinant; tags: N-terminal polyhistidine and DsRed monomer fusion (pET32a); label: CyDye5-dUTP incorporated in the synthesized complementary strand; 3' TTTTT single-stranded linker to array surface; dsDNA, one strand shown
Summary of the method: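 Polyhistidine-tagged DsRed fusions of transcription factors, joined at the N-terminus, were expressed in E. coli BL21-CodonPlus and isolated on Ni–NTA. They were incubated at 200 nM for 1 h at 25 °C on a custom Agilent array, double-stranded and BSA-blocked, in PBS with 2% BSA, salmon testes DNA and 50 µM zinc acetate. The binding signal is per-feature fluorescence intensity (arbitrary units) read on an Axon 4000B scanner after washing.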

Sequence | binding signal
AATTAAATAGATTAACACAAACATGAACCCAACATGACCACGGAGTCACCTAGTGCAG | 29700 fluorescence intensity (a.u.)
AATATACTAATTACAAACAGGTCCCTCGTGGGCTCGTGGGCGGAGTCACCTAGTGCAG | 14700 fluorescence intensity (a.u.)
AGTTGACAGTTCCAATTAATCGTTCATGCGACCCAATTGACGGAGTCACCTAGTGCAG | 21500 fluorescence intensity (a.u.)
TGTCCACTGAAATTGATTGGAGATCGATGTGATGGTCAAGCGGAGTCACCTAGTGCAG | 40200 fluorescence intensity (a.u.)
CTTTAAATCAATAATTAAATATATTTTCATAATAAATTTGCGGAGTCACCTAGTGCAG | 10500 fluorescence intensity (a.u.)
CAAACTAAATTATATCTAAATTAGAGTAAAGAAAACGAGTCGGAGTCACCTAGTGCAG | 26600 fluorescence intensity (a.u.)
GCTTAACTGCTAGTACTACTAACACCTCACCTACCTCCCTCGGAGTCACCTAGTGCAG | 11300 fluorescence intensity (a.u.)
TAGCTAATTCTTAATTAATTATACGCTAATGAATCACTTTCGGAGTCACCTAGTGCAG | 23900 fluorescence intensity (a.u.)
CGGCACTACCTGCAGTTGTAATTGACAGCCGGTCTCTTGTCGGAGTCACCTAGTGCAG | 6560 fluorescence intensity (a.u.)
CTAAATTTATAATACTATAATATGTTATATTCAGTTTTAGCGGAGTCACCTAGTGCAG | 35900 fluorescence intensity (a.u.)
TTAATCAAATTAATGTACTGGCAAGTCGGAAAACAATCCTCGGAGTCACCTAGTGCAG | 8170 fluorescence intensity (a.u.)
AATTAAATTAGAGTATTCAGTTTGTATATAGTACATTTGTCGGAGTCACCTAGTGCAG | 14000 fluorescence intensity (a.u.)
TAACATCGCATTGGATATGATTGACATATAACCAATTTAACGGAGTCACCTAGTGCAG | 8580 fluorescence intensity (a.u.)
CATGATTTATATTTCCAAGGTTTGACTTAAACATTGTCCTCGGAGTCACCTAGTGCAG | 47200 fluorescence intensity (a.u.)
TGGAGGGATTTGATTTGGAAAGGATTTGGATTCGGGATTGCGGAGTCACCTAGTGCAG | 3870 fluorescence intensity (a.u.)
TTTATTTATAAATTATATTTCGTTTGTATAAATATATTGTCGGAGTCACCTAGTGCAG | 4170 fluorescence intensity (a.u.)
GTTAGAATGATTAACTAGTAAAGTCGTTCACTCGGCAACGCGGAGTCACCTAGTGCAG | 26100 fluorescence intensity (a.u.)
GGTGTATAAATTTACTAAAATAGGAAAGTAATGCGGTACCCGGAGTCACCTAGTGCAG | 4010 fluorescence intensity (a.u.)
TTAATTTACACCGGTTTTGATAGTCGAGGGAGGGACGAAACGGAGTCACCTAGTGCAG | 4490 fluorescence intensity (a.u.)
ATAATAAGTTAAAACCTAATCAATCATACGCTAATGACTTCGGAGTCACCTAGTGCAG | 6780 fluorescence intensity (a.u.)
CTAATGGTAAATTAATGGAGATTAACCACAGTGCATGGTACGGAGTCACCTAGTGCAG | 16100 fluorescence intensity (a.u.)
CTGACAGGCAAACCAAACGTGCACTCAGCCACTTACCATGCGGAGTCACCTAGTGCAG | 4860 fluorescence intensity (a.u.)
CCTGATTGCCCACCGCCCCATCGCCGTTCGCTGGTATATGCGGAGTCACCTAGTGCAG | 48500 fluorescence intensity (a.u.)
TTGTGATTTGAGATCTTTCAGTCAATATTCTAAGGGTCGACGGAGTCACCTAGTGCAG | 16100 fluorescence intensity (a.u.)
CAATAATTGCAAGATCATGTTACAAAACGGTTCTAATTAACGGAGTCACCTAGTGCAG | 9980 fluorescence intensity (a.u.)
TAATATTTAGTCATGAATTGATAGGCTAAACATTAGCCCACGGAGTCACCTAGTGCAG | 8930 fluorescence intensity (a.u.)
ATTGATTATTATTTTAAAATAAAATGGCGTGTTAGGTTTTCGGAGTCACCTAGTGCAG | 47300 fluorescence intensity (a.u.)

Sequence | binding signal
TCAAATAATTTCGGTCAGAAATTTCCGAAATTTTGGTAATCGGAGTCACCTAGTGCAG | 7080 fluorescence intensity (a.u.)
CATATTTAATTTGTTACCATATCAAAATTTTGTAATACCACGGAGTCACCTAGTGCAG | 15600 fluorescence intensity (a.u.)
AAACAAATTGGTAGGGCACATTTTGGATTCAAACCAAAATCGGAGTCACCTAGTGCAG | 14200 fluorescence intensity (a.u.)
ATATGTAATTTTAGGATTTACATATGTAATTTTAAGACTTCGGAGTCACCTAGTGCAG | 6930 fluorescence intensity (a.u.)
TTTGCTAGTAATAGATAGATTTTAAGATGAACAAATCTTGCGGAGTCACCTAGTGCAG | 3940 fluorescence intensity (a.u.)
ATTGATCATTTTCCATCTTGACTGAATGGAGAATTCTACTCGGAGTCACCTAGTGCAG | 11200 fluorescence intensity (a.u.)
AGACAATCACTCTCCGTAAACGCATTCTGTAAATTCCCCACGGAGTCACCTAGTGCAG | 6200 fluorescence intensity (a.u.)
ACGTCAAAATTGAAAGTTTGATTAAAATTGGAACAATGTGCGGAGTCACCTAGTGCAG | 26200 fluorescence intensity (a.u.)
CGATTTCTTGTTTAATTACTAATCAATTTCATACATTCATCGGAGTCACCTAGTGCAG | 13400 fluorescence intensity (a.u.)
ATTTGACTAACTGTTGACTAGTGGTGATGGCATGTAAGGACGGAGTCACCTAGTGCAG | 18100 fluorescence intensity (a.u.)
GTTAATTTTGTCTATGAATGAACGGTCGGCGTCAAGCTTACGGAGTCACCTAGTGCAG | 29200 fluorescence intensity (a.u.)
AGTGATTACGGAAAACGGAGCGATCCATTAGCACATGATTCGGAGTCACCTAGTGCAG | 16200 fluorescence intensity (a.u.)
TTTTATAATATTTAATTAGATTCCTTGGTACGAAATGAAACGGAGTCACCTAGTGCAG | 3190 fluorescence intensity (a.u.)
GCTTAATCTCACCCAGTTTGCCCTTATGATTTCTAGATCGCGGAGTCACCTAGTGCAG | 3790 fluorescence intensity (a.u.)
AAATTAAATCACGAGACAGTTTAGTAGGATCCGTGGCTATCGGAGTCACCTAGTGCAG | 5890 fluorescence intensity (a.u.)
TGAACAGGCTAGCTAATTGGTCTCGATTGCGCTTTGGTTACGGAGTCACCTAGTGCAG | 4440 fluorescence intensity (a.u.)
TTTAATCTTTAATATTGATTTTGCCACCAACTAAAACGGCCGGAGTCACCTAGTGCAG | 4660 fluorescence intensity (a.u.)
ACTCTAATTTCCTAACGTTTCTTGACGTAGCCATAAGGTTCGGAGTCACCTAGTGCAG | 10300 fluorescence intensity (a.u.)
GGCGGGTGGTGATGGCGGGGAGGCAGGCCAACGAGCGCGACGGAGTCACCTAGTGCAG | 3200 fluorescence intensity (a.u.)
TAAAATTAGCAAACATGAGAGCAAGGGTCTCTGTCCCCGGCGGAGTCACCTAGTGCAG | 6600 fluorescence intensity (a.u.)
ACCAATTTCCAGTTAACCGCCGTCTGAATTCATTTATCCACGGAGTCACCTAGTGCAG | 9690 fluorescence intensity (a.u.)
ATCCTTATTAATTTAATTTAACAAAGTCAACTTGATTTCCCGGAGTCACCTAGTGCAG | 23100 fluorescence intensity (a.u.)
TGCTGCATTGATAGATACAAATAAATATATATACAGACAACGGAGTCACCTAGTGCAG | 7440 fluorescence intensity (a.u.)
GGAGATATGCTTTTCTGATTGTCTTAATAAAATCGTAGTGCGGAGTCACCTAGTGCAG | 3830 fluorescence intensity (a.u.)
GGTCGATCCATCGATTGATGGATCAATAATGCAAGCAAGCCGGAGTCACCTAGTGCAG | 5030 fluorescence intensity (a.u.)
GAAGACAAATTTTATATCAAACTTGTAGCTCTCGACGCGACGGAGTCACCTAGTGCAG | 5880 fluorescence intensity (a.u.)
ACAAACAAATTAACATGATACTTGGGAACTCTATATAAACCGGAGTCACCTAGTGCAG | 7650 fluorescence intensity (a.u.)
